Test results: the supplement of paper PMC8728848
This is one part of the list.

Key:
Assay in all cases: glycan array binding signal (z-score within array); higher = stronger binding
Settings in all cases: glycan notation: IUPAC condensed, linker removed
[1] = target: Fuc(a1-2)[Gal(a1-3)]Gal(b1-4)[Fuc(a1-3)]Glc
Summary of the method: (§1)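 From the Consortium for Functional Glycomics database, 3228 arrays were curated, keeping only those whose protein sequence was available. Binding is given as a within-array Z-score averaged across arrays sharing a protein sequence and across linkers. Negative Z-scores can be read as non-binding.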

[2] = target: Fuc(a1-2)[Gal(a1-3)]Gal(b1-4)[Fuc(a1-3)]GlcNAc
Summary of the method: as §1

[3] = target: Fuc(a1-2)[Gal(a1-3)]Gal(b1-4)[Fuc(a1-3)]GlcNAc(b1-3)GalNAc
Summary of the method: as §1

[4] = target: Fuc(a1-2)[Gal(a1-4)]Gal(b1-4)GlcNAc
Summary of the method: as §1

[5] = target: Fuc(a1-2)[GalNAc(a1-3)]Gal
Summary of the method: as §1

[6] = target: Fuc(a1-2)[GalNAc(a1-3)]Gal(b1-3)GalNAc(a1-3)[Fuc(a1-2)]Gal(b1-4)GlcNAc
Summary of the method: as §1

[7] = target: Fuc(a1-2)[GalNAc(a1-3)]Gal(b1-3)GlcNAc
Summary of the method: as §1

[8] = target: Fuc(a1-2)[GalNAc(a1-3)]Gal(b1-3)GlcNAc(b1-2)Man(a1-3)[Fuc(a1-2)[GalNAc(a1-3)]Gal(b1-3)GlcNAc(b1-2)Man(a1-6)]Man(b1-4)GlcNAc(b1-4)GlcNAc
Summary of the method: as §1

[9] = target: Fuc(a1-2)[GalNAc(a1-3)]Gal(b1-3)GlcNAc(b1-2)Man(a1-3)[Fuc(a1-2)[GalNAc(a1-3)]Gal(b1-3)GlcNAc(b1-2)Man(a1-6)]Man(b1-4)GlcNAc(b1-4)[Fuc(a1-6)]GlcNAc
Summary of the method: as §1

[10] = target: Fuc(a1-2)[GalNAc(a1-3)]Gal(b1-3)GlcNAc(b1-3)GalNAc
Summary of the method: as §1

[11] = target: Fuc(a1-2)[GalNAc(a1-3)]Gal(b1-3)GlcNAc(b1-6)GalNAc
Summary of the method: as §1

[12] = target: Fuc(a1-2)[GalNAc(a1-3)]Gal(b1-4)Glc
Summary of the method: as §1

[13] = target: Fuc(a1-2)[GalNAc(a1-3)]Gal(b1-4)GlcNAc
Summary of the method: as §1

[14] = target: Fuc(a1-2)[GalNAc(a1-3)]Gal(b1-4)GlcNAc(b1-2)Man(a1-3)[Fuc(a1-2)[GalNAc(a1-3)]Gal(b1-4)GlcNAc(b1-2)Man(a1-6)]Man(b1-4)GlcNAc(b1-4)GlcNAc
Summary of the method: as §1

[15] = target: Fuc(a1-2)[GalNAc(a1-3)]Gal(b1-4)GlcNAc(b1-2)Man(a1-3)[Fuc(a1-2)[GalNAc(a1-3)]Gal(b1-4)GlcNAc(b1-2)Man(a1-6)]Man(b1-4)GlcNAc(b1-4)[Fuc(a1-6)]GlcNAc
Summary of the method: as §1

[16] = target: Fuc(a1-2)[GalNAc(a1-3)]Gal(b1-4)GlcNAc(b1-3)Gal(b1-4)GlcNAc
Summary of the method: as §1

[17] = target: Fuc(a1-2)[GalNAc(a1-3)]Gal(b1-4)GlcNAc(b1-3)Gal(b1-4)GlcNAc(b1-3)Gal(b1-4)GlcNAc
Summary of the method: as §1

[18] = target: Fuc(a1-2)[GalNAc(a1-3)]Gal(b1-4)GlcNAc(b1-3)GalNAc
Summary of the method: as §1

[19] = target: Fuc(a1-2)[GalNAc(a1-3)]Gal(b1-4)[Fuc(a1-3)]GlcNAc
Summary of the method: as §1

[20] = target: Fuc(a1-2)[GalNAc(a1-3)]Gal(b1-4)[Fuc(a1-3)]GlcNAc(b1-3)GalNAc
Summary of the method: as §1

[21] = target: Fuc(a1-2)[GalNAc(a1-4)]Gal(b1-4)GlcNAc
Summary of the method: as §1

[22] = target: Fuc(a1-2)[GalNAc(b1-3)]Gal
Summary of the method: as §1

Fuc(a1-3)GlcNAc = target: Fuc(a1-3)GlcNAc
Summary of the method: as §1

[23] = target: Fuc(a1-3)[Gal(b1-4)]Glc6S
Summary of the method: as §1

[24] = target: Fuc(a1-3)[Gal(b1-4)]GlcNAc
Summary of the method: as §1

[25] = target: Fuc(a1-3)[Gal(b1-4)]GlcNAc(b1-2)Man
Summary of the method: as §1

[26] = target: Fuc(a1-3)[Gal(b1-4)]GlcNAc(b1-2)Man(a1-3)[Fuc(a1-3)[Gal(b1-4)]GlcNAc(b1-2)Man(a1-6)]Man(b1-4)GlcNAc(b1-4)GlcNAc
Summary of the method: as §1

[27] = target: Fuc(a1-3)[Gal(b1-4)]GlcNAc(b1-2)Man(a1-3)[Fuc(a1-3)[Gal(b1-4)]GlcNAc(b1-2)Man(a1-6)]Man(b1-4)GlcNAc(b1-4)[Fuc(a1-6)]GlcNAc
Summary of the method: as §1

[28] = target: Fuc(a1-3)[Gal(b1-4)]GlcNAc(b1-3)Gal(b1-3)[Fuc(a1-4)]GlcNAc
Summary of the method: as §1

[29] = target: Fuc(a1-3)[Gal(b1-4)]GlcNAc(b1-3)GalNAc
Summary of the method: as §1

[30] = target: Fuc(a1-3)[Gal(b1-4)]GlcNAc(b1-4)Gal(b1-4)[Fuc(a1-3)]GlcNAc
Summary of the method: as §1

[31] = target: Fuc(a1-3)[Gal(b1-4)]GlcNAc(b1-4)Gal(b1-4)[Fuc(a1-3)]GlcNAc(b1-4)Gal(b1-4)[Fuc(a1-3)]GlcNAc
Summary of the method: as §1

[32] = target: Fuc(a1-3)[Gal(b1-4)]GlcNAc(b1-6)GalNAc
Summary of the method: as §1

[33] = target: Fuc(a1-3)[Gal(b1-4)]GlcNAc(b1-6)[Gal(b1-3)GlcNAc(b1-3)]Gal(b1-4)Glc
Summary of the method: as §1

[34] = target: Fuc(a1-3)[Gal(b1-4)]GlcNAc(b1-6)[Neu5Ac(a2-3)Gal(b1-3)]GalNAc
Summary of the method: as §1

[35] = target: Fuc(a1-3)[Gal(b1-4)]GlcNAc6S
Summary of the method: as §1

[36] = target: Fuc(a1-3)[Gal3S(b1-4)]GlcNAc
Summary of the method: as §1

[37] = target: Fuc(a1-3)[Gal3S(b1-4)]GlcNAc6S
Summary of the method: as §1

[38] = target: Fuc(a1-3)[GalNAc(b1-4)]GlcNAc
Summary of the method: as §1

[39] = target: Fuc(a1-3)[GalNAc(b1-4)]GlcNAc6S
Summary of the method: as §1

[40] = target: Fuc(a1-3)[GalNAc3S(b1-4)]GlcNAc
Summary of the method: as §1

Fuc(a1-4)GlcNAc = target: Fuc(a1-4)GlcNAc
Summary of the method: as §1

Fuc(b1-3)GlcNAc = target: Fuc(b1-3)GlcNAc
Summary of the method: as §1

Gal(a1-2)Gal = target: Gal(a1-2)Gal
Summary of the method: as §1

Gal(a1-3)Gal = target: Gal(a1-3)Gal
Summary of the method: as §1

B1: CIH1 (Colletotrichum higginsianum) (protein)
chain: LPQATPTTPTPTSASAAATISATSSPTCSPGPVIDYTVVSGDTLTIISQRFSSGICNIADASGITNPNFLSLGQVLQVPTYVCTPDNTSCLAKEGSDTCVEGGPATHTIVAGDTFFLVAQSLGLDVNALLAANEGVDPLLLQIGDVINIPVC
glycan array binding signal (z-score) [1]: -0.086 | glycan array binding signal (z-score) [2]: -0.09 | glycan array binding signal (z-score) [3]: -0.044 | glycan array binding signal (z-score) [4]: -0.061 | glycan array binding signal (z-score) [5]: -0.076 | glycan array binding signal (z-score) [6]: -0.095 | glycan array binding signal (z-score) [7]: -0.079 | glycan array binding signal (z-score) [8]: -0.052 | glycan array binding signal (z-score) [9]: -0.031 | glycan array binding signal (z-score) [10]: -0.081 | glycan array binding signal (z-score) [11]: -0.039 | glycan array binding signal (z-score) [12]: -0.065 | glycan array binding signal (z-score) [13]: -0.071 | glycan array binding signal (z-score) [14]: -0.074 | glycan array binding signal (z-score) [15]: -0.079 | glycan array binding signal (z-score) [16]: -0.074 | glycan array binding signal (z-score) [17]: -0.053 | glycan array binding signal (z-score) [18]: -0.026 | glycan array binding signal (z-score) [19]: -0.07 | glycan array binding signal (z-score) [20]: -0.073 | glycan array binding signal (z-score) [21]: -0.071 | glycan array binding signal (z-score) [22]: -0.093 | glycan array binding signal (z-score) (Fuc(a1-3)GlcNAc): -0.046 | glycan array binding signal (z-score) [23]: -0.072 | glycan array binding signal (z-score) [24]: -0.083 | glycan array binding signal (z-score) [25]: -0.06 | glycan array binding signal (z-score) [26]: -0.079 | glycan array binding signal (z-score) [27]: -0.072 | glycan array binding signal (z-score) [28]: -0.049 | glycan array binding signal (z-score) [29]: -0.067 | glycan array binding signal (z-score) [30]: -0.084 | glycan array binding signal (z-score) [31]: -0.08 | glycan array binding signal (z-score) [32]: -0.066 | glycan array binding signal (z-score) [33]: -0.069 | glycan array binding signal (z-score) [34]: -0.072 | glycan array binding signal (z-score) [35]: -0.057 | glycan array binding signal (z-score) [36]: -0.065 | glycan array binding signal (z-score) [37]: -0.056 | glycan array binding signal (z-score) [38]: -0.064 | glycan array binding signal (z-score) [39]: -0.038 | glycan array binding signal (z-score) [40]: -0.054 | glycan array binding signal (z-score) (Fuc(a1-4)GlcNAc): -0.051 | glycan array binding signal (z-score) (Fuc(b1-3)GlcNAc): -0.079 | glycan array binding signal (z-score) (Gal(a1-2)Gal): -0.046 | glycan array binding signal (z-score) (Gal(a1-3)Gal): -0.084
